Reference: patent US20060160798A1, “Viral polymerase inhibitors” (Boehringer Ingelheim (Canada) Ltd., priority 2001, published 2006)

Test system: Huh7 cells that stably maintain a subgenomic HCV replicon (S22.3 cell-line)
Assay: Cell based HCV RNA replication assay (S22.3 replicon cells, real-time RT-PCR)
Details: Hepatitis C virus
[1] = Huh-7, 72 h, S22.3 cells, 72 hours incubation, HCV RNA by RT-PCR

Compound | EC50 [1] [nM] | EC50 (Huh-7, Table 6) [nM] | also measured
Cn1c(-c2ccccn2)c(C2CCCCC2)c2ccc(C(=O)NC(C)(C)C(=O)Nc3ccc(NC(=O)C(N)=O)cc3)cc21 [Entry 2077] | < 500 | – | –
Cn1c(-c2ccc(N)cc2)c(C2CCCC2)c2ccc(C(=O)NC3(C(=O)Nc4ccc(-c5ccc(C(=O)O)o5)cc4)CCCC3)cc21 [Entry 7017] | – | – | EC50 (Huh-7, Table 7): < 500 nM
CN(C)CCNc1nc(-c2c(C3CCCC3)c3ccc(C(=O)NC4(C(=O)Nc5ccc(/C=C/C(=O)O)cc5)CCCC4)cc3n2C)cs1 [Entry 6097] | – | < 500 | –
Cn1c(C(=O)O)cc2cc(NC(=O)C3(NC(=O)c4ccc5c(C6CCCC6)c(-c6nccs6)n(C)c5c4)CCC3)ccc21 [Entry 7008] | – | – | EC50 (Huh-7, Table 7): < 500 nM
O=C(O)/C=C/c1ccc(NC(=O)C2(NC(=O)c3ccc4c(C5CCCCC5)c(-c5ccoc5)[nH]c4c3)CCC2)cc1 [Entry 2057] | < 500 | – | –
Cc1ccc(-c2c(C3CCCC3)c3ccc(C(=O)N[C@@]4(C(=O)Nc5ccc(/C=C/C(=O)O)cc5)CCN(C)C4)cc3n2C)nc1 [Entry 6114] | – | < 500 | –
Cn1c(-c2csc(NCCN3CCCCC3)n2)c(C2CCCC2)c2ccc(C(=O)NC3(C(=O)Nc4ccc(/C=C/C(=O)O)cc4)CCC3)cc21 [Entry 6078] | – | < 500 | –
CN1CCC(NC(=O)c2ccc3c(C4CCCCC4)c(-c4ccoc4)[nH]c3c2)(C(=O)Nc2ccc3c(c2)cc(C(=O)O)n3C)CC1 [Entry 2049] | 500 to 5000 | – | –
CCc1ccnc(-c2c(C3CCCC3)c3ccc(C(=O)NC4(C(=O)Nc5ccc(/C=C(\C)C(=O)O)cc5)CCC4)cc3n2C)c1 [Entry 7044] | – | – | EC50 (Huh-7, Table 7): 500 to 5000 nM
CC(NC(=O)c1ccc2c(C3CCCC3)c(-c3ccccn3)n(C)c2c1)c1nc2ccc(C=CC(N)=O)cc2[nH]1 (stereo not shown) [Entry 1021] | < 500 | – | –
CCc1ccnc(-c2c(C3CCCC3)c3ccc(C(=O)NC4(C(=O)Nc5ccc(/C=C/C(=O)O)cc5)CCN(C)CC4)cc3n2C)c1 [Entry 6068] | – | 500 to 5000 | –
CCN1CCC(NC(=O)c2ccc3c(C4CCCCC4)c(-c4ccoc4)[nH]c3c2)(C(=O)Nc2ccc(CCC(N)=O)cc2)CC1 [Entry 2100] | < 500 | – | –
C/C(=C\c1ccc(NC(=O)C2(NC(=O)c3ccc4c(C5CCCC5)c(-c5ccc(C)nc5)n(C)c4c3)CCC2)cc1)C(=O)O [Entry 7034] | – | – | EC50 (Huh-7, Table 7): < 500 nM
Cc1c(C(=O)O)sc2ccc(NC(=O)[C@]3(NC(=O)c4ccc5c(C6CCCC6)c(-c6cnccn6)n(C)c5c4)CCN(C)C3)cc12 [Entry 7061] | – | – | EC50 (Huh-7, Table 7): < 500 nM
Cc1ccc(-c2c(C3CCCC3)c3ccc(C(=O)NC4(C(=O)Nc5ccc(-c6ccc(C(=O)O)o6)cc5)CCCC4)cc3n2C)nc1 [Entry 7029] | – | – | EC50 (Huh-7, Table 7): < 500 nM
Cn1c(-c2ccccn2)c(C2CCCC2)c2ccc(C(=O)NC3(C(=O)Nc4ccc(/C=C/C(=O)O)cc4)CCC3)cc21 [Entry 6064] | – | < 500 | –
Cn1c(-c2ccccn2)c(C2CCCC2)c2ccc(C(=O)NC3(c4nc5ccc(C=CC(=O)O)cc5[nH]4)CCCC3)cc21 [Entry 1014] | < 500 | – | –
Cc1ccc(-c2c(C3CCCC3)c3ccc(C(=O)NC4(C(=O)Nc5ccc(/C=C/C(=O)O)cc5)CCN(C)CC4)cc3n2C)nc1 [Entry 6103] | – | < 500 | –
CCn1c(-c2ccccc2)c(C2CCCCC2)c2ccc(C(=O)NC(C)(C)C(=O)Nc3ccc(/C=C/C(=O)O)cc3)cc21 [Entry 2020] | < 500 | – | –
Cn1c(-c2ccncc2)c(C2CCCC2)c2ccc(C(=O)NC3(C(=O)Nc4ccc(-c5ccc(C(=O)O)o5)cc4)CCC3)cc21 [Entry 7040] | – | – | EC50 (Huh-7, Table 7): < 500 nM
C/C(=C\c1ccc(NC(=O)C2(NC(=O)c3ccc4c(C5CCCC5)c(-c5ccc(C)cn5)n(C)c4c3)CCC2)cc1)C(=O)O [Entry 7030] | – | – | EC50 (Huh-7, Table 7): < 500 nM
O=C(O)/C=C/c1ccc(NC(=O)C2(NC(=O)c3ccc4c(C5CCCCC5)c(-c5ccco5)[nH]c4c3)CCCC2)cc1 [Entry 2037] | < 500 | – | –

Compound | EC50 [1] [nM] | EC50 (Huh-7, Table 6) [nM] | also measured
CC#CCn1c(C(=O)O)cc2cc(NC(=O)[C@@H](C)NC(=O)c3ccc4c(C5CCCCC5)c(-c5ccoc5)[nH]c4c3)ccc21 [Entry 2014] | 500 to 5000 | – | –
CCNc1nc(-c2c(C3CCCC3)c3ccc(C(=O)NC4(C(=O)Nc5ccc(/C=C/C(=O)O)cc5)CCCC4)cc3n2C)cs1 [Entry 6088] | – | < 500 | –
Cn1c(-c2cocn2)c(C2CCCC2)c2ccc(C(=O)NC3(C(=O)Nc4ccc(/C=C/C(=O)O)cc4)CCC3)cc21 [Entry 6083] | – | < 500 | –
Cn1c(-c2csc(NCCN3CCCCC3)n2)c(C2CCCC2)c2ccc(C(=O)NC(C)(C)C(=O)Nc3ccc(/C=C/C(=O)O)cc3)cc21 [Entry 6023] | – | < 500 | –
COCCNc1nc(-c2c(C3CCCC3)c3ccc(C(=O)NC4(C(=O)Nc5ccc(/C=C/C(=O)O)cc5)CCC4)cc3n2C)cs1 [Entry 6077] | – | < 500 | –
CCN1CCC(NC(=O)c2ccc3c(C4CCCCC4)c(-c4ccoc4)[nH]c3c2)(C(=O)Nc2ccc(-c3csc(C(=O)O)n3)cc2)CC1 [Entry 2067] | 500 to 5000 | – | –
CC(=O)Nc1nc(-c2c(C3CCCC3)c3ccc(C(=O)NC(C)(C)C(=O)Nc4ccc(/C=C/C(=O)O)cc4)cc3n2C)cs1 [Entry 6008] | – | < 500 | –
Cn1c(-c2ncccn2)c(C2CCCC2)c2ccc(C(=O)NC3(C(=O)Nc4ccc(/C=C/C(=O)O)cc4)CCC3)cc21 [Entry 6111] | – | < 500 | –
CN1CCC(NC(=O)c2ccc3c(C4CCCC4)c(-c4cccc(N)c4)n(C)c3c2)(C(=O)Nc2ccc(/C=C/C(=O)O)cc2)CC1 [Entry 6102] | – | < 500 | –
C/C(=C\c1ccc(NC(=O)C2(NC(=O)c3ccc4c(C5CCCC5)c(-c5ccc(N)cc5)n(C)c4c3)CCC2)cc1)C(=O)O [Entry 7018] | – | – | EC50 (Huh-7, Table 7): < 500 nM
Cn1c(C(=O)O)cc2cc(NC(=O)C3(NC(=O)c4ccc5c(C6CCCC6)c(-c6cccc(N)n6)n(C)c5c4)CCC3)ccc21 [Entry 7027] | – | – | EC50 (Huh-7, Table 7): < 500 nM
Cn1c(-c2ccccn2)c(C2CCCCC2)c2ccc(C(=O)NC(C)(C)C(=O)Nc3ccc(-c4nc(C(N)=O)cs4)cc3)cc21 [Entry 2074] | < 500 | – | –
CN(C)c1ccc(-c2c(C3CCCCC3)c3ccc(C(=O)NC(C)(C)C(=O)Nc4ccc(/C=C/C(=O)O)cc4)cc3n2C)cn1 [Entry 2032] | < 500 | – | –
Cc1cccc(-c2c(C3CCCC3)c3ccc(C(=O)NC4(C(=O)Nc5ccc(/C=C/C(=O)O)cc5)CCN(C)CC4)cc3n2C)n1 [Entry 6058] | – | < 500 | –
Cn1c(-c2cccc([N+](=O)[O-])c2)c(C2CCCCC2)c2ccc(C(=O)NC(C)(C)C(=O)Nc3ccc(/C=C/C(=O)O)cc3)cc21 [Entry 2102] | < 500 | – | –
CC(C)(NC(=O)c1ccc2c(C3CCCCC3)c(-c3ccoc3)[nH]c2c1)C(=O)Nc1ccc(/C=C/C(=O)O)cc1 [Entry 2050, (E)-3-[4-(2-{[1-(3-Cyclohexyl-2-furan-3-yl-1H-indol-6-yl)-methanoyl]-amino}-2-methyl-propanoylamino)-phenyl]-acrylic acid] | < 500 | – | –
Cn1c(-c2ccc(Cl)cn2)c(C2CCCC2)c2ccc(C(=O)NC3(C(=O)Nc4ccc(/C=C/C(=O)O)cc4)CCCC3)cc21 [Entry 6049] | – | < 500 | –
Cn1c(-c2csc(NC(=O)CC(C)(C)C)n2)c(C2CCCC2)c2ccc(C(=O)NC3(C(=O)Nc4ccc(/C=C/C(=O)O)cc4)CCC3)cc21 [Entry 6080] | – | < 500 | –
Cn1c(-c2cccs2)c(C2CCCCC2)c2ccc(C(=O)NC(C)(C)C(=O)Nc3ccc(/C=C/C(=O)O)cc3)cc21 [Entry 2066] | < 500 | – | –
Cc1c(C(=O)O)sc2ccc(NC(=O)[C@]3(NC(=O)c4ccc5c(C6CCCC6)c(-c6ccccn6)n(C)c5c4)CCN(C)C3)cc12 [Entry 1013] | < 500 | – | –
C/C(=C\C(=O)O)c1ccc(NC(=O)C2(NC(=O)c3ccc4c(C5CCCCC5)c(-c5ccoc5)[nH]c4c3)CCCC2)cc1 [Entry 2056] | < 500 | – | –
